The RNAGym collection of RNA variant scans (doi:10.7554/elife.90254)
Read counts are not given, so values of variants with three or more changes are uncertain.

B1: LINE1-full (parent)
chain: UACGUAGGUGGUUUUCCCCUGAUAGUGCUAAGGGGGCCUGGAAGUUUGGACUGGGCAGAGCUCAACACAGCGUGGCAAAGUGGCUGUGGCUAGACUGCCUCUCUGGAUUCCUCGUCACUCAGCAGGGCAUCUCUGAGAGAAAUGCC

Variants of: B1
Assay: self-cleavage, relative activity (ratio to wild type); higher = more cleavage; in vitro, sequencing; the parent is a self-cleaving ribozyme
In the case of U47C A67G U119A, the self-cleavage is reported as 0.72.
For U47C A57G U85A U91C A92U, the self-cleavage was 0.
In the case of U47A A78G U132A, the self-cleavage is reported as 1.17.
U46C A79G G89A U96A showed a self-cleavage of 0.05.
Work on U47A U100C U115A A141G yielded a self-cleavage of 1.84.
U45G A59G A69U showed a self-cleavage of 0.09.
U45G G80A U91A gave a self-cleavage of 0.71.
U46C U62C A107G A124U gave a self-cleavage of 0.26.
U46A A57U U85C A94G A121U showed a self-cleavage of 0.08.
For U47A U104C A117G, the self-cleavage was 0.88.
Variant G48A U85C U132C has a self-cleavage of 0.09.
U47C U62C C68U showed a self-cleavage of 0.03.
Work on U47C A78G A107G G114A yielded a self-cleavage of 1.48.
Work on U46C A57G A64G C145U yielded a self-cleavage of 0.
For U46C A78G A141G, the self-cleavage was 1.39.
For U47A U119C G122A, the self-cleavage was 1.73.
Variant U46C U73C A142G has a self-cleavage of 1.47.
U46A A50G U87A A117G gave a self-cleavage of 0.06.
Variant U46C U73A A77G A124U has a self-cleavage of 0.9.
For U46C A59G A64U A67G A94G C111U, the self-cleavage was 0.
Variant U46C A129G U134A C146U has a self-cleavage of 1.64.
With U47A U87A U104A U108C the self-cleavage was 0.
U47A U73C U81C showed a self-cleavage of 1.41.
Work on U46A A78G A117G A138G yielded a self-cleavage of 0.99.
U47A A65U G137A gave a self-cleavage of 0.15.
Work on U46G U100C A140U yielded a self-cleavage of 1.61.
Variant U47C U81A U96A U102A has a self-cleavage of 0.25.
Variant U46C A57U U112C has a self-cleavage of 0.23.
For U47A U62C U73A A77U A142G, the self-cleavage was 0.03.
U47A U85C U132C gave a self-cleavage of 0.21.
With U47A U109C A138U the self-cleavage was 1.26.
Work on U47C G49A U52G A107G yielded a self-cleavage of 1.9.
With U46A A64G A129G the self-cleavage was 0.37.
For U47A U104G U143G, the self-cleavage was 1.1.
U46C A67G U81A showed a self-cleavage of 0.74.
With U45C U73C G88A the self-cleavage was 0.52.
Work on U45C C71A U104C yielded a self-cleavage of 2.02.
U46C G49U U134C gave a self-cleavage of 1.29.
Work on U47C U102C U108C A129U yielded a self-cleavage of 0.51.
In the case of U45C G89U A136U, the self-cleavage is reported as 0.01.
Work on U46A A94G A141G yielded a self-cleavage of 0.2.
In the case of U46G C101U A140G, the self-cleavage is reported as 1.6.
U46C A57G A142G gave a self-cleavage of 0.
U47G A77G A136G showed a self-cleavage of 0.
U45C U81C U87A gave a self-cleavage of 0.12.
Variant U46C G88A A142G has a self-cleavage of 0.05.
For U47C A69G U81A, the self-cleavage was 0.81.
Work on U45C G54A A78G A138G yielded a self-cleavage of 0.19.
U47C A57U A67G A129U showed a self-cleavage of 0.1.
Work on U47C U85C U104C A138G G144A yielded a self-cleavage of 0.31.
U47C A79G U85A A129G showed a self-cleavage of 0.
U46C C51U C76U A140U gave a self-cleavage of 2.08.
U46C C90A U96C showed a self-cleavage of 0.01.
For U45C U62C U91C, the self-cleavage was 0.
Work on U46C C120U G127A yielded a self-cleavage of 1.42.
Work on U46G U87C A94U yielded a self-cleavage of 0.11.
For U47C U62C U100A, the self-cleavage was 0.
U47C U62A C98U gave a self-cleavage of 0.04.
Variant U46C C61U U73C has a self-cleavage of 0.
With U46C U62C U81A the self-cleavage was 0.07.
U47A A64U C128A showed a self-cleavage of 0.15.
For U45C G60C A64G A69G, the self-cleavage was 0.
U47A U73C U109A G139U gave a self-cleavage of 1.31.
U47A C116U A138G showed a self-cleavage of 2.3.
In the case of U47A U100C A142G, the self-cleavage is reported as 1.84.
U47C G58A A140G gave a self-cleavage of 0.05.
In the case of U45C U47A C71U, the self-cleavage is reported as 0.98.
U47A U62A U73A U87A U119C showed a self-cleavage of 0.03.
With U47A A50G A78G G127A the self-cleavage was 0.42.
With U46C A67G C71U U85C the self-cleavage was 0.
U47A U73C G97C U134A gave a self-cleavage of 0.18.
Work on U46C U96C U130C yielded a self-cleavage of 1.15.
Work on G48A A67C U119A yielded a self-cleavage of 0.01.
U47A A57G A59G A94U U109C C120A A121G gave a self-cleavage of 0.
With U46C A79G U115C the self-cleavage was 0.77.
With U46C A57G A141G the self-cleavage was 1.5.
For U45C G55A U100A U130C U143C, the self-cleavage was 0.12.
Variant U47C A57U U96C G137U A141G has a self-cleavage of 0.11.
For U47C A94G U109C A129U, the self-cleavage was 0.
Variant U46A A94G U100C has a self-cleavage of 0.29.
U46C A57G A78U gave a self-cleavage of 1.84.
In the case of U47G U130C U134C, the self-cleavage is reported as 2.06.
U47A A64U U81C C131A U132C showed a self-cleavage of 0.45.
In the case of U47A U85C A129G A136G A141U, the self-cleavage is reported as 0.
For U46C U62C G72A G125U A136U, the self-cleavage was 0.02.
For U45C C71A U87C, the self-cleavage was 0.05.
With U45C U47A A67G A79G U102C the self-cleavage was 0.
In the case of U47C A57G U62C U109C, the self-cleavage is reported as 0.
In the case of U46A A67G U87A A136U, the self-cleavage is reported as 0.09.
In the case of U47C U62C A94G U132A, the self-cleavage is reported as 0.
Work on U45C U132A A138G A142G yielded a self-cleavage of 2.25.
With U46C A59G A136U A138G the self-cleavage was 0.
Work on U47C U96G C131U U132A yielded a self-cleavage of 0.23.
U46G U96C A141G gave a self-cleavage of 0.05.
With U47C C56A U112C the self-cleavage was 0.04.
U46C A117C U130A gave a self-cleavage of 2.29.
For U45C U62A A77U U132G A138G, the self-cleavage was 0.
U46C U115C C145U showed a self-cleavage of 1.84.
U45C G49A C63U U73A A141G gave a self-cleavage of 0.24.
In the case of U47A A79G C133U, the self-cleavage is reported as 2.07.
Variant U47C U73C U96A U134A has a self-cleavage of 0.07.
U46C U73A G86A U115C G125A showed a self-cleavage of 0.11.
Variant U46C G60A U132C A142G has a self-cleavage of 0.01.
In the case of U47C U119C A140G, the self-cleavage is reported as 1.86.
U46C U112C A136G A140G gave a self-cleavage of 1.22.
Variant U46C A77C A141G has a self-cleavage of 1.1.
For U45C U112C U115C, the self-cleavage was 1.15.
U47C C90U U119A gave a self-cleavage of 0.03.
With U45C U52A U73A U104A the self-cleavage was 2.58.
Work on U47C A69G U96A C123U U130C A138G yielded a self-cleavage of 0.08.
For U46C A77G G127A A140G, the self-cleavage was 1.95.
U47C A69U U130C A140G gave a self-cleavage of 0.14.
Work on U47C U62C U132C A142G yielded a self-cleavage of 0.13.
Work on U45C U91G U130C yielded a self-cleavage of 0.
Work on U47A U109A A142G yielded a self-cleavage of 1.18.
For U45C U85A U130C, the self-cleavage was 0.09.
Work on G48A A94G G126A yielded a self-cleavage of 0.11.
U46C A57U A69U A79U C123A C133U showed a self-cleavage of 0.02.
In the case of U46G A65G U134C U143C, the self-cleavage is reported as 0.
U46C U52A U143A showed a self-cleavage of 1.
With U47A A57U A64U the self-cleavage was 0.04.
In the case of U47C U96A G114A, the self-cleavage is reported as 0.08.
Variant U47G A50U A67G U132C has a self-cleavage of 0.2.
U47A U104C U115C G127A gave a self-cleavage of 1.98.
Variant U45C U46C U132C has a self-cleavage of 1.31.
In the case of U46C U62A U132A, the self-cleavage is reported as 0.01.
Work on U45G C56A U81C U87A yielded a self-cleavage of 0.15.
For U47C G70U A138G, the self-cleavage was 0.03.
Work on U46A A77U A138G yielded a self-cleavage of 2.02.
With U46A A57U A65G the self-cleavage was 0.03.
U47A U115C A138G showed a self-cleavage of 1.94.
For U47G U52A A142U, the self-cleavage was 1.51.
Variant U46C U108C A138G A141U U143C has a self-cleavage of 2.22.
U47C U52C U119C A140G gave a self-cleavage of 1.84.
U46C U85A U104A gave a self-cleavage of 0.02.
U47A A64G U91C A138G showed a self-cleavage of 0.13.
U45C C68U U130C gave a self-cleavage of 0.27.
For U45C G93A U104C A107G U108A, the self-cleavage was 0.1.
Variant U45C U96A A136G has a self-cleavage of 0.06.
Work on U46A A77G A138G U143C yielded a self-cleavage of 1.84.
In the case of U46C U52A U85A U102C A142G, the self-cleavage is reported as 0.
Work on U45C U46A U52C U100C yielded a self-cleavage of 2.3.
Variant U46C A77G G127A has a self-cleavage of 1.54.
With U46C U52A C113A the self-cleavage was 1.5.
U45C G72A U96G gave a self-cleavage of 0.03.
With U46A G114A C116A A140U the self-cleavage was 1.08.
Work on U46C U52C G135U yielded a self-cleavage of 0.84.
For U45C U104A U130C, the self-cleavage was 1.72.
U47C U62C C71U showed a self-cleavage of 0.02.
For U45C U100C U115A, the self-cleavage was 1.04.
In the case of U46A A136G A142G, the self-cleavage is reported as 0.66.
Variant U45C C71A U100A has a self-cleavage of 0.1.
U46A A64C A117U U119C U143A gave a self-cleavage of 0.46.
Variant U46A A59G A121G has a self-cleavage of 0.14.
In the case of U47C U81C U115A, the self-cleavage is reported as 0.21.
U47G U52C U134A showed a self-cleavage of 1.5.
Work on U46C G49A U52A yielded a self-cleavage of 0.92.
For U47C U52A U104A, the self-cleavage was 1.53.
G48A A77G C133A gave a self-cleavage of 1.82.
U46G A59G A129U gave a self-cleavage of 0.
Work on U45C U46C A140G yielded a self-cleavage of 1.27.
Work on U46A C61A A79G U85C U143C yielded a self-cleavage of 0.09.
For U46A U112C A138G A141G, the self-cleavage was 1.17.
Variant U45C U73C G139A has a self-cleavage of 0.
In the case of U45C G72C A77U A78G A107G G139U, the self-cleavage is reported as 1.25.
In the case of U45C C56U A136U, the self-cleavage is reported as 0.15.
In the case of U47C U96A A138G A141G, the self-cleavage is reported as 0.38.
